Assay results taken from PubChem BioAssay AID485344 (National Center for Advancing Translational Sciences (NCATS), 2010).
Hit rate of the full screen: of about 340,000 compounds, about 6,900 (2%) were called active. Cut-off read from the data, not from the text of the source: active = inhibition above about 30%; inactive = below that, where a call was filed. The entries are a selection whose mix differs from that of the whole data set. Where no call is shown, the source filed none.

Each compound was assayed against D(2) dopamine receptor (Homo sapiens) (UniProt P14416) (assay: HTS Assay for Allosteric Antagonists of the Human D2 Dopamine Receptor: Primary Screen for Antagonists). Conditions: HEK293 TREx D2 cells, calcium flux, dopamine EC80; at 10 µM; stronger effect = higher value.
Chain of UniProt P14416 (P14416 whole entry, looked up): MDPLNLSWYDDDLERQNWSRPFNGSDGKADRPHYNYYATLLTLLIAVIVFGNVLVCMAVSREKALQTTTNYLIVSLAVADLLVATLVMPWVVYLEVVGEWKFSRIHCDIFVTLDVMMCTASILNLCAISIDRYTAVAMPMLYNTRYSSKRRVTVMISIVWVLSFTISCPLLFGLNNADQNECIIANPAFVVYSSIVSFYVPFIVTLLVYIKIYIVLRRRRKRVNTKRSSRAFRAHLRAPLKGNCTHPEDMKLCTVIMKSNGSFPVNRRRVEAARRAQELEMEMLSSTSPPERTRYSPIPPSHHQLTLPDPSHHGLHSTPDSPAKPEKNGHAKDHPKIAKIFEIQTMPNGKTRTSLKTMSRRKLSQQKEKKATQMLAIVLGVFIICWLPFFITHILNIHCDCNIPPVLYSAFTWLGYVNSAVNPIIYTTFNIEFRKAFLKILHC
Procedure, shortened: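 Calcium mobilization kinetics were recorded at 1 s intervals in tetracycline-induced HEK293 T-REx D2 cells, first for 180 s after compound addition and then 180 s after EC80 dopamine.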
Note: 0% is about no effect.

Row | SMILES | inhibition
1 | O=C(CN1CCN(C(=O)c2ccco2)CC1)NCc1ccc(Cl)cc1 | active: 32.4%
2 | O=C(O)COc1ccc2occ(C(=O)c3ccccc3)c2c1 | active: 37.5%
3 | CNC(=O)Cn1cc(S(=O)(=O)Cc2ccccc2F)c2ccccc21 | -0.229%
4 | COC(=O)c1c(-c2cccs2)csc1NC(=O)COc1c(C)ccc(C)c1C | -8.34%
5 | CCOc1ccc(CCNC(=O)c2cnc3sc(N4CCC(C)CC4)nn3c2=O)cc1 | 6.47%
6 | CCCCCSc1nc2sc3c(c2c(=O)n1-c1ccccc1)CCN(C(C)=O)C3 | 20.7%
7 | Cc1nn(C(=O)c2ccccc2F)c(C)c1S(=O)(=O)N1CCCCCC1 | -12.1%
8 | COc1ccc(-c2oc3ncn4nc(COc5c(C)cccc5C)nc4c3c2-c2ccc(OC)cc2)cc1 | 21.3%
9 | CCOc1ccccc1NC(=O)N1CCc2cc(S(=O)(=O)N3CCC(C)CC3)ccc21 | 3.69%
10 | COc1ccc(-c2noc(-c3ccc(N4CCN(C)CC4)c([N+](=O)[O-])c3)n2)cc1OC | 3.38%
11 | Cc1ccccc1-c1nnc(CN2CCN(c3ccccn3)CC2)o1 | -2.4%
12 | Cc1cc(Br)ccc1NC(=O)C1CCN(S(=O)(=O)c2cccc3nsnc23)CC1 | 6.2%
13 | CCOC(=O)c1ccc(NC(=O)N2CCOc3ccccc32)cc1 | -14%
14 | Cc1ccc2c(c1)-c1nc(-c3ccc4c(c3)NC(=O)CO4)cc(-c3ccc(F)cc3)c1CO2 | -0.979%
15 | Cc1nc2c(C(=O)NCCc3ccc(Cl)cc3)c[nH]n2c(=O)c1Cc1ccc(Cl)cc1 | 6.73%
16 | COc1ccccc1C(=O)Nc1c(C(=O)N(C)Cc2ccccc2)sc2nc(C)c(Cl)c(C)c12 | 8.14%
17 | O=C(CSc1nnc(-c2ccc(O)cc2)o1)c1ccc(Br)cc1 | -9.11%
18 | COc1ccc(C(=O)NCc2ccccc2CN2CCCC2)cc1S(=O)(=O)N1CCOCC1 | active: 45.2%
19 | CCCCOc1ccc(CN2C(=O)C(=O)c3cc(Br)cc(C)c32)cc1OC | 0.309%
20 | CCOc1ccccc1CNC(=O)C1CCCN(c2ncnc3onc(-c4ccc(F)cc4)c23)C1 (stereo unspecified) | -2.29%
21 | Cc1ccc(CN2CCc3nc(N4CCN(c5ccccc5F)CC4)ncc3C2)cc1C | 18.9%
22 | Cc1cccc(C)c1-n1ncc(C(=O)Nc2ccc3c(c2)OCO3)c1C1CCN(C(=O)OC(C)(C)C)CC1 | -8.52%
23 | COc1cccc(-c2cc(C(F)(F)F)nc(NCCc3ccccc3)n2)c1 | -10.8%
24 | CC(C)(Oc1ccc(Cl)cc1)C(=O)N1CCN(c2ccccn2)CC1 | active: 43%
25 | OC(COc1c(F)cc(Br)cc1F)CN1CCN(c2ccc(F)cc2)CC1 (stereo unspecified) | active: 70.9%
26 | COc1ccccc1CCNC(=O)c1ccc2c(c1)c(C)c(C)n2Cc1ccc(Cl)cc1 | -2.98%
